# According to a collection of fitness landscapes (doi:10.1016/j.celrep.2020.107928):
# In all, about 81,000 sequences were measured (“one-hybrid fitness for binding parS DNA”: median about -0.17, highest 2% from about 0.51 on). The list shows a part of the results.
# B1: Caulobacter ParB omega fusion; a variant is named by its letters at X, in order, B8GW30 (parent)
# chain: MESVVVGEPGMSEGRRGLGRGLSALLGEVDAAPAQAPGEQLGGSREAPIEILQRNPDQPRRTFREEDLEDLSNSIREKGVLQPILVRPSPDTAGEYQIVAGERAWRAAQRAGLKTVPIMVRELDDLAVLEIGIIENVQRADLNVLEEALSYKVLMEKFERTQENIAQTIGKSXSHVANXMRLLXLPDEVQSYLVSGELTAXHARAIAAAADPVALAKQIIEGGLSVRETEALARKAPNLSAGKSKGGRPPRVKDTDTQALESDLSSVLGLDVSIDHRGSTGTLTITYATLEQLDDLCNRLTRGI
# Variants of: B1
# Assay: one-hybrid fitness for binding parS DNA (scaled: cognate 1, non-cognate 0); higher = stronger binding
# Conditions: with parS DNA site
# Summary of the method: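 Values were rescaled so that cognate is 1 and non-cognate is 0. Each is a fitness, the log change in a variant's read ratio to wild type from Illumina reads of plasmids before and after selection, with three replicate libraries pooled and variants under 10 reads dropped. Selection of the Caulobacter ParB libraries, four specificity codons randomised, used E. coli USO with a HIS3 reporter, site 19 bp from the promoter, on M9-minus-histidine with 0.1 mM IPTG and 5 mM 3-AT for 48 hours at 37°C.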
row,Variant,one-hybrid fitness for binding parS DNA
1,AHCT,≤ 0.2
2,LLGG,≤ 0.2
3,MNAL,≤ 0.2
4,IDQC,0.383
5,YQEC,≤ 0.2
6,KVHL,≤ 0.2
7,ERHY,≤ 0.2
8,CFSG,≤ 0.2
9,NRHD,≤ 0.2
10,YDYT,≤ 0.2
11,HMAS,≤ 0.2
12,TMTA,≤ 0.2
13,IFSF,≤ 0.2
14,MQSN,≤ 0.2
15,WLFI,≤ 0.2
16,CSSS,≤ 0.2
17,LDNI,≤ 0.2
18,GDRY,≤ 0.2
19,NMCC,≤ 0.2
20,APAV,≤ 0.2
21,MLAW,≤ 0.2
22,VIKE,≤ 0.2
23,QVHD,≤ 0.2
24,YFSC,≤ 0.2
25,VNGF,≤ 0.2
26,SFKN,≤ 0.2

row,Variant,one-hybrid fitness for binding parS DNA
1,TDNC,≤ 0.2
2,TQMR,≤ 0.2
3,RPTM,≤ 0.2
4,RINC,0.955
5,GEPR,≤ 0.2
6,FTVA,≤ 0.2
7,TQHC,≤ 0.2
8,VYIC,≤ 0.2
9,TPWT,≤ 0.2
10,QKVL,≤ 0.2
11,HHSK,≤ 0.2
12,KMGD,≤ 0.2
13,KMGS,≤ 0.2
14,KNDS,≤ 0.2
15,TDVI,≤ 0.2
16,YLTW,≤ 0.2
17,RHDY,0.397
18,HSSE,≤ 0.2
19,GQER,≤ 0.2
20,PTRC,≤ 0.2
21,ITDG,≤ 0.2
22,PSVP,≤ 0.2
23,RSNC,0.957
24,QRTW,≤ 0.2
25,AELY,≤ 0.2
26,FASK,≤ 0.2

row,Variant,one-hybrid fitness for binding parS DNA
1,IKWT,≤ 0.2
2,TGLR,≤ 0.2
3,NDLG,≤ 0.2
4,LSWS,≤ 0.2
5,ADYM,≤ 0.2
6,AGSW,≤ 0.2
7,QENT,≤ 0.2
8,PYNE,≤ 0.2
9,FGDM,≤ 0.2
10,CFNG,≤ 0.2
11,TMWP,0.201
12,PTDF,≤ 0.2
13,MWIV,≤ 0.2
14,RHVY,0.354
15,LYMD,≤ 0.2
16,KLVA,≤ 0.2
17,RIML,≤ 0.2
18,LCCS,≤ 0.2
19,TNKT,≤ 0.2
20,WGMR,≤ 0.2
21,ERHC,≤ 0.2
22,RNNI,≤ 0.2
23,CMPG,≤ 0.2
24,GFRL,≤ 0.2
25,VPRK,≤ 0.2
26,HEDP,≤ 0.2

row,Variant,one-hybrid fitness for binding parS DNA
1,VFVD,≤ 0.2
2,RPSH,≤ 0.2
3,YPCV,≤ 0.2
4,QYAK,≤ 0.2
5,IQQS,≤ 0.2
6,WYRT,≤ 0.2
7,LFMG,≤ 0.2
8,KYTL,≤ 0.2
9,YDDT,≤ 0.2
10,QRKH,≤ 0.2
11,HNRN,≤ 0.2
12,QTKY,≤ 0.2
13,SFSL,≤ 0.2
14,MEMS,≤ 0.2
15,ERFR,≤ 0.2
16,ISIL,≤ 0.2
17,GHHG,≤ 0.2
18,PPTC,≤ 0.2
19,EYLG,≤ 0.2
20,RYYW,0.26
21,QELV,≤ 0.2
22,TRGR,≤ 0.2
23,AYPR,≤ 0.2
24,VNWS,≤ 0.2
25,TETS,≤ 0.2
26,QEGT,≤ 0.2

row,Variant,one-hybrid fitness for binding parS DNA
1,RLDI,≤ 0.2
2,RGEV,≤ 0.2
3,PVRK,≤ 0.2
4,FHLR,≤ 0.2
5,QYRC,≤ 0.2
6,LSAM,≤ 0.2
7,RHKN,0.365
8,TSCD,≤ 0.2
9,CKTA,≤ 0.2
10,SGNP,≤ 0.2
11,RACE,≤ 0.2
12,MQNG,≤ 0.2
13,YTPL,≤ 0.2
14,WYPR,≤ 0.2
15,VATN,≤ 0.2
16,LPSR,≤ 0.2
17,PYRN,≤ 0.2
18,KRMA,≤ 0.2
19,QPKH,≤ 0.2
20,KTLV,≤ 0.2
21,TGGY,≤ 0.2
22,NMHD,≤ 0.2
23,ASSF,≤ 0.2
24,QNNR,≤ 0.2
25,RFTA,0.541
26,QMAK,≤ 0.2

row,Variant,one-hybrid fitness for binding parS DNA
1,TPFL,≤ 0.2
2,EPMD,≤ 0.2
3,TFAT,≤ 0.2
4,GNME,≤ 0.2
5,AEQG,≤ 0.2
6,LDSA,≤ 0.2
7,ATNL,≤ 0.2
8,YVLS,≤ 0.2
9,VTEC,≤ 0.2
10,QGEP,≤ 0.2
11,TVVP,≤ 0.2
12,AHNV,≤ 0.2
13,RSYM,0.288
14,YNQP,≤ 0.2
15,PVEW,≤ 0.2
16,ANHE,≤ 0.2
17,EDRV,≤ 0.2
18,QLMH,≤ 0.2
19,PPDP,≤ 0.2
20,RNVL,≤ 0.2
21,PEQK,≤ 0.2
22,PGAF,≤ 0.2
23,LYIC,≤ 0.2
